# Data reported in the supplement of paper PMC8728848.
# Some of the results follow.
# Columns and labels:
# Assay in all cases: glycan array binding signal (z-score within array); higher = stronger binding
# Settings in all cases: glycan notation: IUPAC condensed, linker removed
# [1] = molecular target: Gal(b1-3)GlcNAc(b1-3)Gal(b1-4)GlcNAc(b1-2)Man(a1-3)[Gal(b1-3)GlcNAc(b1-3)Gal(b1-4)GlcNAc(b1-2)Man(a1-6)]Man(b1-4)GlcNAc(b1-4)GlcNAc
# Method in brief: (§1)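 From the Consortium for Functional Glycomics database, 3228 arrays were curated, keeping only those whose protein sequence was available. Binding is given as a within-array Z-score averaged across arrays sharing a protein sequence and across linkers. Negative Z-scores can be read as non-binding.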
# [2] = molecular target: Gal(b1-3)GlcNAc(b1-3)Gal(b1-4)GlcNAc(b1-2)[Gal(b1-3)GlcNAc(b1-3)Gal(b1-4)GlcNAc(b1-6)]Man(a1-6)[Gal(b1-3)GlcNAc(b1-3)Gal(b1-4)GlcNAc(b1-2)Man(a1-3)]Man(b1-4)GlcNAc(b1-4)[Fuc(a1-6)]GlcNAc
# Method in brief: as §1
# [3] = molecular target: Gal(b1-3)GlcNAc(b1-3)Gal(b1-4)GlcNAc(b1-3)Gal(b1-4)GlcNAc(b1-2)[Gal(b1-3)GlcNAc(b1-3)Gal(b1-4)GlcNAc(b1-3)Gal(b1-4)GlcNAc(b1-6)]Man(a1-6)[Gal(b1-3)GlcNAc(b1-3)Gal(b1-4)GlcNAc(b1-3)Gal(b1-4)GlcNAc(b1-2)Man(a1-3)]Man(b1-4)GlcNAc(b1-4)[Fuc(a1-6)]GlcNAc
# Method in brief: as §1
# [4] = molecular target: Gal(b1-3)GlcNAc(b1-3)Gal(b1-4)GlcNAc(b1-6)[Gal(b1-3)GlcNAc(b1-3)]Gal(b1-4)Glc
# Method in brief: as §1
# [5] = molecular target: Gal(b1-3)GlcNAc(b1-3)Gal(b1-4)[Fuc(a1-3)]GlcNAc
# Method in brief: as §1
# [6] = molecular target: Gal(b1-3)GlcNAc(b1-3)Gal(b1-4)[Fuc(a1-3)]GlcNAc(b1-6)[Gal(b1-3)GlcNAc(b1-3)]Gal(b1-4)Glc
# Method in brief: as §1
# [7] = molecular target: Gal(b1-3)GlcNAc(b1-3)GalNAc
# Method in brief: as §1
# [8] = molecular target: Gal(b1-3)GlcNAc(b1-6)Gal(b1-4)GlcNAc
# Method in brief: as §1
# [9] = molecular target: Gal(b1-3)GlcNAc(b1-6)GalNAc
# Method in brief: as §1
# [10] = molecular target: Gal(b1-3)GlcNAc(b1-6)[Gal(b1-3)]GalNAc
# Method in brief: as §1
# Gal(b1-3)GlcNAc6S = molecular target: Gal(b1-3)GlcNAc6S
# Method in brief: as §1
# [11] = molecular target: Gal(b1-3)[Fuc(a1-4)]GlcNAc
# Method in brief: as §1
# [12] = molecular target: Gal(b1-3)[Fuc(a1-4)]GlcNAc(b1-2)Man
# Method in brief: as §1
# [13] = molecular target: Gal(b1-3)[Fuc(a1-4)]GlcNAc(b1-2)Man(a1-3)[Gal(b1-3)[Fuc(a1-4)]GlcNAc(b1-2)Man(a1-6)]Man(b1-4)GlcNAc(b1-4)[Fuc(a1-6)]GlcNAc
# Method in brief: as §1
# [14] = molecular target: Gal(b1-3)[Fuc(a1-4)]GlcNAc(b1-3)Gal(b1-3)[Fuc(a1-4)]GlcNAc
# Method in brief: as §1
# [15] = molecular target: Gal(b1-3)[Fuc(a1-4)]GlcNAc(b1-3)Gal(b1-4)[Fuc(a1-3)]GlcNAc
# Method in brief: as §1
# [16] = molecular target: Gal(b1-3)[Fuc(a1-4)]GlcNAc(b1-6)GalNAc
# Method in brief: as §1
# [17] = molecular target: Gal(b1-3)[GlcNAc(b1-6)]GalNAc
# Method in brief: as §1
# [18] = molecular target: Gal(b1-3)[Neu5Ac(a2-6)]GalNAc
# Method in brief: as §1
# [19] = molecular target: Gal(b1-3)[Neu5Ac(a2-6)]GlcNAc(b1-4)Gal(b1-4)Glc
# Method in brief: as §1
# [20] = molecular target: Gal(b1-3)[Neu5Ac(b2-6)]GalNAc
# Method in brief: as §1
# Gal(b1-4)Gal = molecular target: Gal(b1-4)Gal
# Method in brief: as §1
# [21] = molecular target: Gal(b1-4)GalNAc(a1-3)[Fuc(a1-2)]Gal(b1-4)GlcNAc
# Method in brief: as §1
# [22] = molecular target: Gal(b1-4)GalNAc(b1-3)[Fuc(a1-2)]Gal(b1-4)GlcNAc
# Method in brief: as §1
# Gal(b1-4)Glc = molecular target: Gal(b1-4)Glc
# Method in brief: as §1
# Gal(b1-4)Glc6S = molecular target: Gal(b1-4)Glc6S
# Method in brief: as §1
# Gal(b1-4)GlcNAc = molecular target: Gal(b1-4)GlcNAc
# Method in brief: as §1
# [23] = molecular target: Gal(b1-4)GlcNAc(a1-6)Gal(b1-4)GlcNAc
# Method in brief: as §1
# Gal(b1-4)GlcNAc(b1-2)Man = molecular target: Gal(b1-4)GlcNAc(b1-2)Man
# Method in brief: as §1
# [24] = molecular target: Gal(b1-4)GlcNAc(b1-2)Man(a1-3)Man(b1-4)GlcNAc(b1-4)GlcNAc
# Method in brief: as §1
# [25] = molecular target: Gal(b1-4)GlcNAc(b1-2)Man(a1-3)[Gal(b1-4)GlcNAc(b1-2)Man(a1-6)]Man(b1-4)GlcNAc(b1-4)GlcNAc
# Method in brief: as §1
# [26] = molecular target: Gal(b1-4)GlcNAc(b1-2)Man(a1-3)[Gal(b1-4)GlcNAc(b1-2)Man(a1-6)]Man(b1-4)GlcNAc(b1-4)[Fuc(a1-6)]GlcNAc
# Method in brief: as §1
# [27] = molecular target: Gal(b1-4)GlcNAc(b1-2)Man(a1-3)[Gal(b1-4)GlcNAc(b1-2)Man(a1-6)][Gal(b1-4)GlcNAc(b1-4)]Man(b1-4)GlcNAc(b1-4)[Fuc(a1-6)]GlcNAc
# Method in brief: as §1
# [28] = molecular target: Gal(b1-4)GlcNAc(b1-2)Man(a1-3)[Gal(b1-4)GlcNAc(b1-2)Man(a1-6)][GlcNAc(b1-4)]Man(b1-4)GlcNAc(b1-4)[Fuc(a1-6)]GlcNAc
# Method in brief: as §1
# [29] = molecular target: Gal(b1-4)GlcNAc(b1-2)Man(a1-3)[GlcNAc(b1-2)Man(a1-6)]Man(b1-4)GlcNAc(b1-4)GlcNAc
# Method in brief: as §1
# [30] = molecular target: Gal(b1-4)GlcNAc(b1-2)Man(a1-3)[GlcNAc(b1-4)][Gal(b1-4)GlcNAc(b1-2)Man(a1-6)]Man(b1-4)GlcNAc(b1-4)GlcNAc
# Method in brief: as §1
# [31] = molecular target: Gal(b1-4)GlcNAc(b1-2)Man(a1-3)[Man(a1-6)]Man(b1-4)GlcNAc(b1-4)GlcNAc
# Method in brief: as §1
# [32] = molecular target: Gal(b1-4)GlcNAc(b1-2)Man(a1-6)Man(b1-4)GlcNAc(b1-4)GlcNAc
# Method in brief: as §1
binder,measurement,setting,value
DC-ASGPR-short (Homo sapiens) (protein) MTRTYENFQYLENKVKVQGFKNGPLPLQSLLQRLRSGPCHLLLSLGLGLLLLVIICVVGFQNSKFQRDLVTLRTDFSNFTSNTVAEIQALTSQGSSLEETIASLKAEVEGFKQERQAVHSEMLLRVQQLVQDLKKLTCQVATLNNNASTEGTCCPVNWVEHQDSCYWFSHSGMSWAEAEKYCQLKNAHLVVINSREEQNFVQKYLGSAYTWMGLSDPEGAWKWVDGTDYATGFQNWKPGQPDDWQGHGLGGGEDCAHFHPDGRWNDDVCQRPYHWVCEAGLGQTSQESH,glycan array binding signal (z-score),[1],-0.221
same,glycan array binding signal (z-score),[2],0.663
same,glycan array binding signal (z-score),[3],0.287
same,glycan array binding signal (z-score),[4],-0.275
same,glycan array binding signal (z-score),[5],-0.281
same,glycan array binding signal (z-score),[6],-0.283
same,glycan array binding signal (z-score),[7],-0.274
same,glycan array binding signal (z-score),[8],-0.283
same,glycan array binding signal (z-score),[9],1.82
same,glycan array binding signal (z-score),[10],-0.158
same,glycan array binding signal (z-score),Gal(b1-3)GlcNAc6S,-0.268
same,glycan array binding signal (z-score),[11],-0.264
same,glycan array binding signal (z-score),[12],-0.106
same,glycan array binding signal (z-score),[13],-0.153
same,glycan array binding signal (z-score),[14],-0.26
same,glycan array binding signal (z-score),[15],-0.28
same,glycan array binding signal (z-score),[16],0.593
same,glycan array binding signal (z-score),[17],-0.088
same,glycan array binding signal (z-score),[18],-0.275
same,glycan array binding signal (z-score),[19],-0.278
same,glycan array binding signal (z-score),[20],-0.278
same,glycan array binding signal (z-score),Gal(b1-4)Gal,-0.295
same,glycan array binding signal (z-score),[21],-0.284
same,glycan array binding signal (z-score),[22],-0.277
same,glycan array binding signal (z-score),Gal(b1-4)Glc,-0.265
same,glycan array binding signal (z-score),Gal(b1-4)Glc6S,-0.266
same,glycan array binding signal (z-score),Gal(b1-4)GlcNAc,-0.272
same,glycan array binding signal (z-score),[23],-0.282
same,glycan array binding signal (z-score),Gal(b1-4)GlcNAc(b1-2)Man,0.188
same,glycan array binding signal (z-score),[24],-0.284
same,glycan array binding signal (z-score),[25],-0.276
same,glycan array binding signal (z-score),[26],-0.28
same,glycan array binding signal (z-score),[27],-0.276
same,glycan array binding signal (z-score),[28],-0.285
same,glycan array binding signal (z-score),[29],-0.283
same,glycan array binding signal (z-score),[30],-0.282
same,glycan array binding signal (z-score),[31],-0.16
same,glycan array binding signal (z-score),[32],-0.281
